Laboratory results: article PMC4336329 (PLoS ONE, 2015)
Screen size: about 310,000 compounds; about 14,000 (4.5%) showed an effect of 50% or more. Effects have a minus sign here. Some of the results follow.

Target: human ether-à-go-go-related gene (hERG) potassium channel (human, UniProt Q12809)
Test: primary screen, population patch clamp on CHO cells stably expressing hERG
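Note: peak tail current of the secondary pulse compared with the same well before compound.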

Sequence of human ether-à-go-go-related gene (hERG) potassium channel (Q12809 whole entry, looked up): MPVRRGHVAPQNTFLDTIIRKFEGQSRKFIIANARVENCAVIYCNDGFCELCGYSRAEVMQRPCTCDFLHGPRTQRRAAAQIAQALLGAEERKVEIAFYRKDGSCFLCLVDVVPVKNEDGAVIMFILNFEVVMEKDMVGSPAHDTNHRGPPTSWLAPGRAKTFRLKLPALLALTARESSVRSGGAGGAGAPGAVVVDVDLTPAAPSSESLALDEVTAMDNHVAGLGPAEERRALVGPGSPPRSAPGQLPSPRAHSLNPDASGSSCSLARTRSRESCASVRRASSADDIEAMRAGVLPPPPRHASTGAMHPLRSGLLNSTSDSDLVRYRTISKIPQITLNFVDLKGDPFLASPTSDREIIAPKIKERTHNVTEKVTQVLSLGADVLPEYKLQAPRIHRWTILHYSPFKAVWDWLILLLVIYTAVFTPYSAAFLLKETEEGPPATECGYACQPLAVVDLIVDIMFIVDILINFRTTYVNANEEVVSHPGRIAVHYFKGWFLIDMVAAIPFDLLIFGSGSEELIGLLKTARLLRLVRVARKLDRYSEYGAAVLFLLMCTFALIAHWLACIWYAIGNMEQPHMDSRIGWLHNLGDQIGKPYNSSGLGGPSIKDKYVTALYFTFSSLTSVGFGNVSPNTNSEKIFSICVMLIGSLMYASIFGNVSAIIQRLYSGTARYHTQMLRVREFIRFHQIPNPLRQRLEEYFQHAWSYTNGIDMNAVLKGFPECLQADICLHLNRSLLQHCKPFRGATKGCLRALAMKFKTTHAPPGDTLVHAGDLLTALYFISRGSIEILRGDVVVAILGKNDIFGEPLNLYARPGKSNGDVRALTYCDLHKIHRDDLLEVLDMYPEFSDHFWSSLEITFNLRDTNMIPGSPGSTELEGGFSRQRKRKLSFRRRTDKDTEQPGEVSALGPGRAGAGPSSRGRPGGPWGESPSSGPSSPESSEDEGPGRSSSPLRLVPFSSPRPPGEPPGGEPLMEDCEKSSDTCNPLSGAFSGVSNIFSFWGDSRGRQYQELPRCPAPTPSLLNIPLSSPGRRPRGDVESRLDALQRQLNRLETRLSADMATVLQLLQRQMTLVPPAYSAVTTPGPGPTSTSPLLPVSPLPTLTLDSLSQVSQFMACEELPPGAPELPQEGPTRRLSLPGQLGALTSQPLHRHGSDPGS

Row | Structure (SMILES) | hERG current change (%, negative = inhibition) at 10uM
1 | COc1ccc(C2CC(c3ccccc3)=NN2C(=O)COC(=O)/C=C/c2ccc(O)c(OC)c2)cc1 (centres unmarked) | -0.0375%
2 | O=C(NNC(=O)c1ccc(Cl)c([N+](=O)[O-])c1)c1ccncc1 | 13.2%
3 | Cc1cc(C)cc(C(=O)NCC(=O)OCc2c(C)noc2C)c1 | -9.66%
4 | Cc1cccn2c(=O)c3cc(C(=O)NC4CCCC4)n(C)c3nc12 | 1.13%
5 | Cc1onc(-c2ccccc2)c1C(=O)N1CCN(C(=O)c2ccco2)CC1 | -0.342%
6 | COC(=O)c1ccc(N/C=C/C(=O)c2ccc(OC)c(OC)c2)cc1 | -19.7%
7 | Cc1nonc1CC(=O)NC1CCCc2c1cnn2-c1ccc(F)cc1F (centres unmarked) | 11.2%
8 | CCCCNC(=O)CCC(=O)Nc1ccc2nc(N3CCCCC3)cc(C)c2c1 | -18.5%
9 | C(=N\Nc1nc2ccccc2[nH]1)/c1ccccc1 | 17.5%
10 | O=C(NCc1ccccc1)C1CCCN1S(=O)(=O)c1ccc(Cl)cc1 (centres unmarked) | -7.85%
11 | CCn1c(=O)c2c(nc(SCC(=O)NCC3CCCO3)n2C)n(C)c1=O (centres unmarked) | -0.794%
12 | Cc1cc(C(=O)NCCCN2CC(C)CC(C)C2)n(-c2ccccc2)n1 (centres unmarked) | -20.2%
13 | Cc1ccc(C)c(Cn2nnc3c(=O)[nH]c(C4CCN(S(=O)(=O)c5ccc(S(=O)(=O)N(C)C)cc5)CC4)nc32)c1 | 31.1%
14 | CCCCSc1nnc(CCNC(=O)OC(C)(C)C)o1 | 7.42%
15 | CC(C)Cn1c(O)c(/C=C2\C=NN=C2c2ccccc2)sc1=S | 11.6%
16 | CCOc1ccc(N(C(=O)CNC(=O)c2ccco2)C(C(=O)NC2CCCC2)c2ccncc2)cc1 (centres unmarked) | -10.7%
17 | CC(C)[C@]12CC(=O)[C@H](C)[C@H]1C2 | 16.5%
18 | CC#CC(=O)NC1CCCN(C2Cc3ccccc3C2)C1 (centres unmarked) | -18.7%
19 | Cc1ccccc1OCc1nnc(SCC(=O)N2c3ccccc3Sc3ccc(Cl)cc32)o1 | 10.2%
20 | CN(CCC1CCCCO1)C(=O)CCc1nnc(CCc2ccccc2)o1 (centres unmarked) | 6.83%
21 | Cc1nn(CC(=O)NC2CCC(C)CC2)c(=O)c(C#N)c1C (centres unmarked) | -1.66%
22 | NC(=O)C(c1ccc(F)cc1)c1ccc(C(=O)c2ccccc2)cc1 (centres unmarked) | -11.5%

Row | Structure (SMILES) | hERG current change (%, negative = inhibition) at 10uM
23 | OC(CN1CCN(Cc2ccccc2)CC1)c1ccc(Br)cc1 (centres unmarked) | -67.9%
24 | Cn1ccc(NC(=O)c2ccc(Cl)cc2)n1 | 5.16%
25 | O=C(Nc1cccc(Br)c1)c1cc2ccccc2o1 | -3.25%
26 | O=C(NCc1ccc2c(c1)OCO2)Nc1ccc(Cl)cc1 | 5.12%
27 | COc1ccccc1NC(=O)c1c(N=Cc2ccccc2O)cnn1C | 5.36%
28 | O=S(=O)(/N=C(/Nc1ccc(F)cc1F)c1ccccc1)c1ccc(Br)cc1 | 12.3%
29 | Cc1ccc(NS(=O)(=O)c2ccc3c(c2)NC(=O)CCS3)c(Br)c1 | -1.14%
30 | O=C(Oc1c(-c2ccccc2)c(=O)n2c3c(cccc13)CC2)c1cccc([N+](=O)[O-])c1 | 0.198%
31 | CCOC(=O)c1sc(N2N=C(C)/C(=C\c3ccc(OCC(=O)OC)cc3)C2=O)nc1C | 22%
32 | Cc1nc2ccccc2c(=O)n1/N=C/c1ccc2ccccc2c1O | 10.9%
33 | O=C(Nc1ncc(Br)s1)C(Cc1ccccc1)n1cccc1 (centres unmarked) | -3.05%
34 | COc1ccccc1CNC(=O)c1sccc1-c1ccccc1 | -6.16%
35 | Cc1ccc(CCCOC(=O)C[N+]2(C)CCCCC2)cc1.[I-] | 0.583%
36 | O=C(O)c1ccc(NS(=O)(=O)c2cccc3nsnc23)cc1 | 7.4%
37 | COC(=O)C1=C(C)N(CCc2ccc(OC)c(OC)c2)C(=O)/C1=C\c1ccc(O)cc1 | 19.3%
38 | Cc1cc(C(=O)CSc2nncs2)c(C)n1-c1ccc2c(c1)OCO2 | -15.8%
39 | COc1ccc(OCC(O)CNC(=O)Nc2ccc(C(C)(C)C)cc2)cc1 (centres unmarked) | 1.15%
40 | CC(=O)C1=C(O)CC(c2ccccc2)CC1=NCCc1c(C)[nH]c2ccc(C)cc12 (centres unmarked) | -11.3%
41 | COc1cc(/C=C/C(=O)OCC(=O)N2CCC(C)CC2)ccc1O | -0.556%
42 | CC(C)CNC(=S)N1CCC(NC(=O)c2ccco2)CC1 | -65.7%
43 | O=C(O)c1cc2nc(-c3ccccc3)cc(C(F)(F)F)n2n1 | -1.04%
44 | COc1ccc(-c2noc(CN3C(=O)c4ccccc4C3=O)n2)cc1 | -9.16%

Row | Structure (SMILES) | hERG current change (%, negative = inhibition) at 10uM
45 | CN(Cc1nc(-c2cnccn2)no1)Cc1n[nH]c2c1CCCCC2 | -0.424%
46 | C=C1CCN([C@@H](CC(C)C)C(=O)NCc2ccco2)S(=O)(=O)c2ccccc21 | 2.79%
47 | CCCCCn1c(=NC(=O)c2ccco2)c(C(=O)OCC)cc2c(=O)n3ccccc3nc21 | -73.5%
48 | CCc1ccn2cc(-c3cc(-c4ccccc4)no3)nc2c1 | 5.11%
49 | O=C(Nc1ccccc1C(=O)N/N=C/c1ccco1)c1ccc(Cl)cc1 | 2.77%
50 | O=C(O)CCC(=O)N1CC=C(c2ccccc2)CC1 | 6.07%
51 | CCCCOc1ccc(-c2ncc([N+](=O)[O-])cn2)cc1 | 0.41%
52 | COC(C(=O)Nc1ccnn1C1CCN(Cc2ccc(C)s2)CC1)c1ccccc1 (centres unmarked) | -50.8%
53 | CCOC(=O)C1CCN(C(=O)COC(=O)c2ccc(=O)n(Cc3ccccc3)n2)CC1 | -10.7%
54 | Cc1cc(C)c(C)c(S(=O)(=O)N2CCN(CC(=O)c3c(N)n(Cc4ccccc4)c(=O)n(C)c3=O)CC2)c1C | -10.2%
55 | COc1ccccc1/C=C/CN1CCC(Oc2cc(C(=O)NC3CC3)ccc2OC)CC1 | -76.5%
56 | O=C(O)c1cccc(NC(=O)c2ccc3c(c2)C(=O)N(Cc2ccco2)C3=O)c1 | 16.3%
57 | CCC(C)NS(=O)(=O)c1ccc(S(=O)(=O)N2CCCC3(CCCCC3)C2)cc1 (centres unmarked) | -5.74%
58 | COc1ccccc1-c1cc(-c2ccccc2)nc(=O)[nH]1 | 5.68%
59 | COc1ccc(S(=O)(=O)n2nc(OC(=O)c3ccco3)cc2N)cc1 | -0.725%
60 | Cc1ccc(OCC(=O)Nc2ccc(CN3CCOCC3)cc2)cc1C | -39.3%
61 | O=C(O)C(=O)O.c1ccc2c(c1)CCN(C1CCCCC1)C2 | 3.82%
62 | CCOC(=O)c1c(Cc2ccccc2)c[nH]c1C | 24.5%
63 | CC(=O)c1cccc(CN2CCCCC2C(=O)Nc2ccc(Oc3ccccc3)nc2)c1 (centres unmarked) | -28.7%
64 | O=S(=O)(c1ccc(F)cc1)N1CCCN(c2nccc(C(F)(F)F)n2)CC1 | -0.763%
65 | COc1ccc(CNn2cnnc2)c(O)c1 | 15.9%
66 | COc1ccc(-n2c(SCC(=O)Nc3ccc(NC(C)=O)cc3)nc3ccccc3c2=O)cc1 | 17.3%

Row | Structure (SMILES) | hERG current change (%, negative = inhibition) at 10uM
67 | CCCCOc1ccccc1NC(=O)c1ccco1 | -12.5%
68 | N#Cc1ccc(-c2ccc(Cl)cc2)nc1Oc1ccc(F)cc1 | 5.57%
69 | Cc1cccc(CSc2ccc3nnc(-c4cccs4)n3n2)c1 | 17.9%
70 | O=C(Oc1ccccc1Cl)c1ccc(-n2cncn2)nc1 | 23.8%
71 | O=C(Nc1nnc(C2=COCCO2)o1)c1ccc(S(=O)(=O)N2CCCCC2)cc1 | 18.7%
72 | CCCCN(CC)S(=O)(=O)c1ccc(C(=O)N=c2sc3cc(NC(C)=O)ccc3n2C)cc1 | 9.43%
73 | COc1ccc(NC(=S)NC(NC(=O)C(C)C)C(Cl)(Cl)Cl)c([N+](=O)[O-])c1 (centres unmarked) | 3.64%
74 | CC(C)n1c(SCC(=O)Nc2nc3c(s2)CCCC3)nc2c1c(=O)n(C)c(=O)n2C | -59.2%
75 | COc1ccc(-c2noc(CN(C)Cc3ccccc3)n2)c(OC)c1OC | 9.23%
76 | NC(=O)c1ccc[n+](CC(=O)c2ccc(Br)cc2)c1.[Br-] | 10.3%
77 | Cc1cc(Cl)c2oc(C(=O)N3CCN(C(=O)c4ccco4)CC3)c(C)c2c1 | -53.9%
78 | CCN(CC(=O)Nc1ccc(C)c(S(=O)(=O)N(C)C)c1)Cc1ccccc1.O=C(O)C(=O)O | -25.1%
79 | CC(=O)c1c(C)nn(C(=O)N2CCOCC2)c1C | 0.531%
80 | COc1ccc(CCN2CC(C(=O)NCCc3ccccc3)CC2=O)cc1OC (centres unmarked) | 15.5%
81 | Cc1cc(OC(C)C(=O)NCc2ccncc2)c2c(C)cc(=O)oc2c1 (centres unmarked) | -49.2%
82 | Cc1ccccc1N1CCN(C2CCCN(C(=O)CCN3CCCCO3)C2)CC1 (centres unmarked) | -18.7%
83 | Cc1nc(NC(=O)CC(C)C)sc1-c1csc(Nc2ccc(Cl)cc2Cl)n1 | 4.74%
84 | Cc1ccc(CN(C)C(=O)COc2ccc(S(=O)(=O)N3CCCC3)cc2[N+](=O)[O-])c(C)c1 | -9%
85 | CCc1ccc2[nH]c(=O)c(CN(Cc3ccco3)C(=S)NCC3CCCO3)cc2c1 (centres unmarked) | -19%
86 | C=CCNc1nc(NCc2ccco2)nc(OCC)n1 | -12.7%
